The source gives no read counts; variants with many changes may rest on few reads.
B1: OR4K15 (parent)
chain: GUUAACGGUCAUAGGCCAUGGAAACUAGGAGCACCAUUUCGCUGCCAGUGAAGAAAUGAACAAAGAAAAUCUGGGCCAGGCAGGCAUCAAAAGAAAUAGUCUUGCGCUCAACCAGAAAGUCUGUAAUCAUUUUAAGGGUA

Variants of: B1
Assay: self-cleavage, relative activity (ratio to wild type); higher = more cleavage; in vitro, sequencing; the parent is a self-cleaving ribozyme

Variant	self-cleavage
U9C U43C U103A	0.5
U9C U49A A52C U103C U132C	0.29
U9C U49C A55G U100C A129G	2.25
U9C U49C A56G A89U A117G	1.53
U9C U49C A59G U130C	0.77
U9C U49C A64G U131A	1.25
U9C U49C G74A A78G	0.3
U9C U57A A89G	1.3
U9C U57C A78U A86G	0.18
U9C U57C A117G	1.58
U9C U57C U122C	1.2
U9C U70A U122C	0.54
U9C U72C A94G U130C	0.06
U9C U97A U100C U132C	1.48
U9C U100C A129G U131C	2.1
U9C U100C U122A	2.23
U9C U102A A111G	0.02
U9C U103G A111U A117U	0.01
U9C U108C G119A U124C	0.01
U9C U120C U131A U133C	0.53
U9G A18G A52G	1

Variant	self-cleavage
U9G A18G C45A U120C	0.61
U9G A52G U72A	0.3
U9G U26C A96G A98U	1.83
U9G U39C A69G	1.06
U9G U57C A59U A90U	1.21
U9G U102C U108C A125G	0
C10A A13U A60G	0.64
C10A A23G U100C U132C G137A	1.66
C10A A59G A91G U102C U131C	1.33
C10A A63C A90G A98G C121A	2.01
C10A U43A U49A A117G A140U	2.32
C10A U70C U139C	0.8
C10G U39C A51C U100C	0.36
C10U A18G C46A	0.52
C10U A18U U122G	2.56
C10U A23G A24G A114U A116G A117G U122A	0
C10U A23U U37C U43C U49A A54U A60G A86U	0.57
C10U A24G U49A G80A U97C	0.18
C10U A30G A95U U100A U122C	0.98
C10U A33U A98G	0.23
C10U A55G A118C	1.09

Variant	self-cleavage
C10U A59G U87C U131C	1.82
C10U A63G A90G U100C	0.73
C10U A63G A92G U130C	0.89
C10U A82G A114U	0.03
C10U A86G A95G	2.26
C10U A90G U108C	0.02
C10U A111G U131C	0.08
C10U C16U C61U A96U A117C	0.78
C10U C85A A95G	0.75
C10U G73U A117G	0.08
C10U U26A C81G A118G	0.06
C10U U39C A98G A135G	0.77
C10U U70C U72C	0.41
C10U U130A U133C A134G	0.43
A11C A18C A54G	1.42
A11C A18G A82U A118G	0.17
A11C A22G A78G U131C	0.22
A11C A23G A67G	1.3
A11C A36G A67G A92G A118G	1.05
A11C A51G A129U U132C	0.53
A11C A55G A64G A69G	0.44

Variant	self-cleavage
A11C A60C U108C A118U	0.01
A11C A67G A89G	2.05
A11C A67G A94G	1
A11C A69G A91G A111G	0.02
A11C A78U U103C U131C	0.06
A11C A94G U100C	2.37
A11C A117G U120A A129U	1.85
A11C C25U A27G A68G	1.47
A11C C25U U37C U108C A110G	0.04
A11C U12A G84A U127C G138U	1.12
A11C U19C A95G	1.67
A11C U26A A116U	0.15
A11C U43C A47G U57C	0.71
A11C U70G A90U U127C	1.4
A11G A13G A54G A55G A62G	0.49
A11G A13G A66G A67U	0.96
A11G A13G A94G U108C A118G U124A	0.02
A11G A13G A114G A118G A126G	0.1
A11G A13G U38A A52G A90G	0.54
A11G A13G U43G A47G U72A	0.51

From the RNAGym collection of RNA variant scans (doi:10.7554/elife.90254)
